From a collection of fitness landscapes (doi:10.1126/science.1257360) come the findings set out here.

This is one part of the list. Bounds are passed on as bounds.

To fix the notation:
B1: PhoQ; a variant is named by its letters at X, in order, P23837 (parent)
chain: MKKLLRLFFPLSLRVRFLLATAAVVLVLSLAYGMVALIGYSVSFDKTTFRLLRGESNLFYTLAKWENNKLHVELPENIDKQSPTMTLIYDENGQLLWAQRDVPWLMKMIQPDWLKSNGFHEIEADVNDTSLLLSGDHSIQQQLQEVREDDDDAEMTHSVAVNVYPATSRMPKLTIVVVDTIPVELKSSYMVWSWFIYVLSANLLLVIPLLWVAAWWSLRPIEALAKEVRELEEHNRELLNPATTRELTSLVRNLNRLLKSERERYDKYRTTLTDLTHSLKTPLXXLQXXLRSLRSEKMSVSDAEPVMLEQISRISQQIGYYLHRASMRGGTLLSRELHPVAPLLDNLTSALNKVYQRKGVNISLDISPEISFVGEQNDFVEVMGNVLDNACKYCLEFVEISARQTDEHLYIVVEDDGPGIPLSKREVIFDRGQRVDTLRPGQGVGLAVAREITEQYEGKIVAGESMLGGARMEVIFGRQHSAPKDE

In this assay the parent is B1. The assay can be described thus: enrichment ratio after two sorts for PhoP signalling (ratio (wild type AVST 3.29)); higher = more functional. Conditions: with PhoP (E. coli).
For WHCV, the enrichment ratio was at most 0.25.
With EKRC the figure was at most 0.25.
The figure for VSTI is 2.9; for TRAL it is 1.23.
With IQME the figure was at most 0.25.
Turning to GGCS, the enrichment ratio was found to be 13.1.
With DHSN the figure was at most 0.25; with PCLS, at most 0.25; with VLEF, at most 0.25.
The figure for MSGI is 17.5.
The figure for NEHN is at most 0.25; for RWFG it is at most 0.25; for NPHE it is at most 0.25.
For PDRL, the enrichment ratio is at most 0.25.
With FMSL the figure was at most 0.25.
With KAEN the figure was at most 0.25.
With IPIP the figure was at most 0.25.
Take EECI: the enrichment ratio is at most 0.25.
With RLQA the figure was at most 0.25.
As for TMLW, the enrichment ratio was at most 0.25.
With TMKH the figure was at most 0.25; with HSYC, at most 0.25.
With YWQV the figure was at most 0.25; with HWTV, at most 0.25.
Regarding QCFP, the enrichment ratio is at most 0.25.
With DNNR the figure was at most 0.25.
With QGPL the figure was at most 0.25; with SHAT, at most 0.25.
The figure for EGHH is at most 0.25; for NLEL it is at most 0.25; for MPWY it is at most 0.25.
On to FCRC, for which the enrichment ratio was at most 0.25.
The figure for DSET is at most 0.25; for PGAW it is at most 0.25.
The figure for VCHG is at most 0.25; for FCLR it is at most 0.25; for VINM it is at most 0.25.
The figure for ALRD is at most 0.25; for PWFF it is at most 0.25.
Consider QREF, for which the enrichment ratio was at most 0.25.
With WSTQ the figure was at most 0.25; with VKGQ, at most 0.25; with NLSS, at most 0.25.
With PSVW the figure was at most 0.25; with WDNG, at most 0.25; with DTSM, at most 0.25.
Consider SSRA, for which the enrichment ratio is at most 0.25.
On to FMHK, for which the enrichment ratio is at most 0.25.
Take KGFH: the enrichment ratio is at most 0.25.
The figure for SRGY is at most 0.25; for WGCV it is at most 0.25.
With AFPQ the figure was at most 0.25; with NLGR, at most 0.25; with LKEN, at most 0.25.
The figure for KACF is at most 0.25.
QVVV: the enrichment ratio was at most 0.25.
With WITH the figure was at most 0.25.
For the variant ANQH, the enrichment ratio was at most 0.25.
RIRD: the enrichment ratio is at most 0.25.
The figure for IRSQ is at most 0.25; for FIAR it is at most 0.25.
The figure for LTCP is at most 0.25; for DATI it is at most 0.25.
With HMMV the figure was at most 0.25; with YCYD, at most 0.25; with YKLV, 0.568.
Regarding PGYR, the enrichment ratio was at most 0.25.
With WYKV the figure was at most 0.25; with AEHC, at most 0.25.
With FILH the figure was 3.33; with LAQA, at most 0.25.
The figure for FNSV is 0.755.
WSAR: the enrichment ratio is at most 0.25.
The figure for YPTV is at most 0.25; for HENP it is 6.36; for VHWR it is at most 0.25.
As for HNIW, the enrichment ratio was at most 0.25.
Turning to MFWI, the enrichment ratio is at most 0.25.
The figure for LRHS is at most 0.25.
As for PATH, the enrichment ratio is at most 0.25.
With TNIS the figure was at most 0.25; with VSVI, at most 0.25.
As for ESLM, the enrichment ratio is at most 0.25.
The figure for MIGW is at most 0.25; for SSMC it is 9.26; for ISMI it is 4.13.
Consider YKWA, for which the enrichment ratio is at most 0.25.
With PPSC the figure was at most 0.25; with FQWV, at most 0.25; with DPHN, at most 0.25.
With KAFM the figure was at most 0.25; with HHMK, at most 0.25; with KKDF, at most 0.25.
With WEDF the figure was at most 0.25; with MFNF, at most 0.25.
On to TSDQ, for which the enrichment ratio is at most 0.25.
The figure for MYYD is at most 0.25; for NGPE it is at most 0.25; for LEDA it is at most 0.25.
With PVKN, the enrichment ratio was at most 0.25.
The figure for PSSK is at most 0.25.
With VKIG the figure was at most 0.25; with KLRF, at most 0.25.
The figure for RWNQ is at most 0.25; for TTFC it is at most 0.25.
On to NMCN, for which the enrichment ratio is at most 0.25.
The figure for DMPS is at most 0.25; for EMKI it is at most 0.25.
With FKYD the figure was at most 0.25; with PKAN, at most 0.25; with ASIH, 6.7.
With RRVN the figure was at most 0.25.
Take YHAS: the enrichment ratio was at most 0.25.
The figure for GVMV is at most 0.25; for EGFH it is at most 0.25.
Turning to GCMS, the enrichment ratio was at most 0.25.
The figure for SDVI is 11; for WDLI it is at most 0.25; for NDHD it is at most 0.25.
With EECN the figure was at most 0.25; with MNNV, at most 0.25.
With HEQE the figure was at most 0.25.
Consider HHDA, for which the enrichment ratio was at most 0.25.
In the case of NALM, the enrichment ratio turned out to be 5.51.
With PHFL the figure was at most 0.25.
With QILI the figure was at most 0.25; with IMHI, at most 0.25; with RMLY, at most 0.25.
The figure for TCPQ is at most 0.25.
In the case of HRLI, the enrichment ratio was at most 0.25.
The figure for KCVH is at most 0.25; for REHD it is at most 0.25.
The figure for GALQ is 8.32; for RDGY it is at most 0.25.
With GNPE the figure was at most 0.25; with GLYI, at most 0.25.
LRWY: the enrichment ratio is at most 0.25.
With VDDG the figure was at most 0.25.
With LQHF the figure was at most 0.25; with QCWD, 4.9.
The figure for PYRV is at most 0.25; for MLHA it is at most 0.25.
Turning to LICL, the enrichment ratio is at most 0.25.
Consider RSNA, for which the enrichment ratio was at most 0.25.
With LHHE the figure was at most 0.25.
The figure for SICM is 14.4; for ADGG it is at most 0.25.
The figure for NSEI is at most 0.25; for NLTC it is at most 0.25; for FYYF it is at most 0.25.
Take TFIQ: the enrichment ratio is at most 0.25.
As for THFL, the enrichment ratio stood at 1.14.
As to PFPV, the enrichment ratio was at most 0.25.
